The structures appear in SMILES notation. The campaign covered roughly 310,000 compounds. About 2,200 (0.71%) showed an effect of 50% or more. The effect is printed as a negative number. Some of the results follow. *1 amine or outer side, *2 acyl side, *3 side chain or, on linkers, in order; H or OH if unused. Where a SMILES comes first, the peptide text is derived from it. Bridges are numbered along the chain shown (N, C = ends). [ ]: non-standard residue; d: D form. ξ: configuration not given here. hSer(Ph(2-I,4-NO2,6-CO)) = O=C([C@H](CCOc1c(I)cc([N+](=O)[O-])cc1C(=O)[*:3])N[*:1])[*:2]; ξD = NC(CC(=O)O)C(=O)O

The assay deals with human ether-à-go-go-related gene (hERG) potassium channel (human, UniProt Q12809). As to the kind of experiment: primary screen, population patch clamp on CHO cells stably expressing hERG.
Sequence of human ether-à-go-go-related gene (hERG) potassium channel (Q12809 whole entry, looked up): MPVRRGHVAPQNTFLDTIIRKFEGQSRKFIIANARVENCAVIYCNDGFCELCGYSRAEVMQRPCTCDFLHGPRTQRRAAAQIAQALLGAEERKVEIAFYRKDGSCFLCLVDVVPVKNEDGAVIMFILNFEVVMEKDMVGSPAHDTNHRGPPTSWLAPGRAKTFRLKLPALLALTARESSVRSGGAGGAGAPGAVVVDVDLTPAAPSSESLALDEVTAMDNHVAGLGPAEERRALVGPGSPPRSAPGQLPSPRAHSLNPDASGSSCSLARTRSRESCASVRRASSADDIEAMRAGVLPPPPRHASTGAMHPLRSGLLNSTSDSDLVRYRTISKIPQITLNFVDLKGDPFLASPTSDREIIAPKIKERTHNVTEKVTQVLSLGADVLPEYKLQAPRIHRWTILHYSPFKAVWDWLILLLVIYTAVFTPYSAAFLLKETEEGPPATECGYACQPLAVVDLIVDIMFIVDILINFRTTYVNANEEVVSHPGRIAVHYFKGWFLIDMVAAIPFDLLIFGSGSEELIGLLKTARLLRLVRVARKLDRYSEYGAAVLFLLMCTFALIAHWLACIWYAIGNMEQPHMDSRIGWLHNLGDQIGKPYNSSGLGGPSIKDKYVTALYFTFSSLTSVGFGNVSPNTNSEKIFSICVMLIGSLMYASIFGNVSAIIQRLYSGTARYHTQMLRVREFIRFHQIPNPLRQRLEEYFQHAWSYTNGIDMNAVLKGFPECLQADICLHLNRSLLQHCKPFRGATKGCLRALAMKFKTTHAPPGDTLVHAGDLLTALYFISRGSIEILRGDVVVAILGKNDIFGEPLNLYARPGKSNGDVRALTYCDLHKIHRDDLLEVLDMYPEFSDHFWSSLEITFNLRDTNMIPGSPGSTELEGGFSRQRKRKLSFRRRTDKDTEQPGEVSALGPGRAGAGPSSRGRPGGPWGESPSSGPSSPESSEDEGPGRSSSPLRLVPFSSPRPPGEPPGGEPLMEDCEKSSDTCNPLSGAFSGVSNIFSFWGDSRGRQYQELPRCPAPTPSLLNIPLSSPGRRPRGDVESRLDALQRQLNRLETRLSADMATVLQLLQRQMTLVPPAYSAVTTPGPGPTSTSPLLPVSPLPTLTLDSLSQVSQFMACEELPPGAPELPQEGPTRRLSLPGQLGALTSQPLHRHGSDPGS
As to `Cc1ccc(NC(=O)c2ccccn2)cc1S(=O)(=O)N1CCOCC1`, the “hERG current change (%, negative = inhibition) at 1uM” value is recorded as 9.45%. With `N#Cc1cnc(Nc2ccc(F)cc2)nc1N`, the “hERG current change (%, negative = inhibition) at 1uM” value is 9.95%. With `Cc1ccnc(N/N=C/c2ccccc2)n1` the figure was 3.1%.

As to `CC(=O)Nc1ccc(NC(=O)Cn2nc([N+](=O)[O-])c(Br)c2C)cc1`, the “hERG current change (%, negative = inhibition) at 1uM” value is on record as 9.63%. Next, `COc1ccc(CNC(=O)OCCN2CCN(S(=O)(=O)c3ccc(C)cc3)CCC2=O)cc1`: -14.6%; `CCOC(=O)C1(CC)NC(c2ccco2)C2C(=O)N(CC)C(=O)C21` (stereo not drawn): 11.9%; `CCCc1cc(=O)n(-c2nc3ccccc3s2)[nH]1`: 8.94%. As for `CN(Cc1ccccc1)c1ccc(N2C(=O)CCCC2=O)cc1[N+](=O)[O-]`, the “hERG current change (%, negative = inhibition) at 1uM” value was found to be 13.4%. Next, `O=C(O)c1cc2c(N3CCC(Cc4ccccc4)CC3)ncnc2s1`: 25.2%; `Oc1cc(Cc2ccccc2)cnc1CN1CCOCC1`: -4.67%. On to `CCOc1ccccc1NC(=O)Nc1ccsc1C(=O)OC`, for which the “hERG current change (%, negative = inhibition) at 1uM” value is 1.64%. Next, `O=C(NC(Nc1ncccn1)C(=O)c1ccccc1)c1ccccc1` (stereo not drawn): -6.91%. Take `CCCN=Cc1c(CCC)[nH]n(-c2nc3ccccc3s2)c1=O`: the “hERG current change (%, negative = inhibition) at 1uM” value is given as -4.61%. Regarding `COc1cc(-c2nc3cnccn3c2NC(C)(C)CC(C)(C)C)ccc1O`, the “hERG current change (%, negative = inhibition) at 1uM” value is 17.3%. With `O=c1ccnc(Sc2ncccc2[N+](=O)[O-])[nH]1` the figure was 0.974%.

On to `CC(OC(=O)C1CCN(c2ccc(C(F)(F)F)cn2)CC1)C(=O)Nc1cccc([N+](=O)[O-])c1` (stereo not drawn), for which the “hERG current change (%, negative = inhibition) at 1uM” value turned out to be 5.99%. With `CC[C@@]1(O)C(=O)OCc2c1cc1n(c2=O)Cc2cc3c(CN(C)C)c(O)ccc3nc2-1.Cl` the figure was 13.4%.

For the compound `CCCCC(=O)OCc1c(-c2cccc(OC)c2)ncc2ccccc12`, the “hERG current change (%, negative = inhibition) at 1uM” value was found to be 13.9%. With `COc1ccc(C(=O)CSc2[nH]c(=O)cc(C(F)(F)F)c2C#N)cc1`, the “hERG current change (%, negative = inhibition) at 1uM” value is 14%.

Take `Cn1ncc(C#N)c1NC(=O)C1CC(c2ccccc2Cl)=NO1` (stereo not drawn): the “hERG current change (%, negative = inhibition) at 1uM” value stood at 6.25%.

Take `COCCN(C(=O)COC(=O)CSc1ccc2ccccc2c1)c1c(N)n(Cc2ccccc2)c(=O)[nH]c1=O`: the “hERG current change (%, negative = inhibition) at 1uM” value is 14%. In the case of `C/C(=N\Nc1ccc(C(=O)O)cc1)c1nc2ccccc2n1C`, the “hERG current change (%, negative = inhibition) at 1uM” value came out at 12.8%. In the case of `Cc1cc(S(=O)(=O)N2CCOCC2)ccc1OCC(=O)Nc1ccccc1F`, the “hERG current change (%, negative = inhibition) at 1uM” value came out at 13.2%. Next, `O=C(/C=C/c1ccccc1)NCc1ccco1`: 0.0536%.

As for `O=C(COC(=O)c1cccc(OC(F)F)c1)NC1CCCC1`, the “hERG current change (%, negative = inhibition) at 1uM” value was 2.26%.

In the case of `CCOc1ccccc1NC(=O)CSc1nc2c(c(=O)n(C)c(=O)n2C)n1C`, the “hERG current change (%, negative = inhibition) at 1uM” value is 13.8%.

On to `COC(=O)Cc1c(C)c2ccc(O)c(CN3CCCC(C)C3)c2oc1=O` (stereo not drawn), for which the “hERG current change (%, negative = inhibition) at 1uM” value is on record as 14.4%. With `CCc1cc(C(=O)OCC(=O)N2CCC(c3ccccc3)=N2)sc1C` the figure was 4.99%; with `C/C(=N\OCC(=O)OCC(=O)N(Cc1ccccc1)C(C)(C)C)c1ccc2c(c1)OCO2`, 6.83%. With `C[C@@H]1NC(=O)c2cc([N+](=O)[O-])cc(I)c2OCC[C@@H](C(=O)NC(CC(=O)O)C(N)=O)NC(=O)[C@H](CC(N)=O)NC1=O` (stereo partly drawn) (AN[hSer(Ph(2-I,4-NO2,6-CO))][ξD]-NH2; lactam N-3) the figure was 16.7%; with `Cc1ccc(C(=O)O/N=C2\CC3CCC2(C)C3(C)C)cc1` (stereo not drawn), 1.9%; with `CCCOC(=O)c1ccc(Cl)c(NC(=O)c2ccc(-c3ccccc3)cc2)c1`, 10.4%. Next, `Cc1ccccc1CNS(=O)(=O)c1ccc2c(c1)OCCO2`: -8.36%.

Consider `Fc1cc(F)cc(Nc2nc(Cl)nc(NC3CCCC3)n2)c1`, for which the “hERG current change (%, negative = inhibition) at 1uM” value is listed as 13.7%.

With `CC(C)Sc1nnc(NC(=O)C2CC2)s1`, the “hERG current change (%, negative = inhibition) at 1uM” value came to 2.1%.

With `O=C(COC(=O)c1ccccc1C(=O)OCC(=O)NCCc1c[nH]c2ccccc12)NCCc1c[nH]c2ccccc12`, the “hERG current change (%, negative = inhibition) at 1uM” value is 9.99%. Regarding `C=C1CCC2C(C)(C)[C@H](O)CC[C@@]2(C)[C@@H]1COc1cc(=O)oc2ccccc12` (stereo partly drawn), the “hERG current change (%, negative = inhibition) at 1uM” value was determined as 8.76%. With `O=C(Nc1ccccn1)C1(c2ccccc2)CCCC1` the figure was 4.41%. With `Cn1c(=O)[nH]c(=O)c2c1nc([N+](=O)[O-])n2Cc1ccccc1` the figure was 10%; with `Clc1ccccc1CSc1snnc1-c1ccccc1`, 0.114%. Next, `C=CCn1c(=S)[nH]c2nc3c(cc2c1=O)CCCC3`: 6.09%.

On to `N#CNC(=Nc1ccc(F)cc1)SCc1ccccc1`, for which the “hERG current change (%, negative = inhibition) at 1uM” value is given as 5.9%. As to `CC1CCCN(C(=O)CSc2nnc(-c3ccc(O)cc3)o2)C1` (stereo not drawn), the “hERG current change (%, negative = inhibition) at 1uM” value was 19.6%. With `CC12CCC(c3nnc(SCC(=O)Nc4cccc5ccccc45)nc31)C2(C)C` (stereo not drawn) the figure was 9.45%; with `COc1ccc(C(=O)Nc2ccc(S(=O)(=O)N3CCN(C)CC3)cc2)cc1[N+](=O)[O-]`, 11.2%; with `CCC(C)NC(=O)C1CCC(CNS(=O)(=O)c2cccc3nsnc23)CC1` (stereo not drawn), 9.46%.

On to `O=C(NC1CCCCC1)C(c1ccco1)N(C(=O)C(F)(F)F)C1CC1` (stereo not drawn), for which the “hERG current change (%, negative = inhibition) at 1uM” value turned out to be 6.61%. Regarding `COc1cccc(CNC(=O)CCC2CCCN(C(=O)C3=CC(=O)CC(C)(C)O3)C2)c1` (stereo not drawn), the “hERG current change (%, negative = inhibition) at 1uM” value is on record as 16%. As for `CCN(C(=O)CSc1nnc(-c2ccc3c(c2)OCO3)o1)C1CCS(=O)(=O)C1` (stereo not drawn), the “hERG current change (%, negative = inhibition) at 1uM” value came out at 14%. Regarding `CCCC(=O)C1C(=O)CC(C)(C)C(c2cc(C)no2)C1=O` (stereo not drawn), the “hERG current change (%, negative = inhibition) at 1uM” value was 9.24%. Next, `COc1ccccc1NC(=O)CSc1nc2[nH]ncc2c(=O)[nH]1`: 11.5%; `CN(Cc1ccccc1)S(=O)(=O)c1ccc(NC(=S)NC(=O)C2CCCCC2)cc1`: 5.25%; `Cc1cc(C)n2nc(-c3ccc(Br)cc3)cc2n1`: 9.4%. With `Cn1c(=O)[nH]c(=O)c2c1nc(Br)n2CCCCSc1nc2ccccc2o1` the figure was -14.1%. As for `O=C(Cn1nc(-c2ccco2)ccc1=O)Nc1cc(C(F)(F)F)ccc1Cl`, the “hERG current change (%, negative = inhibition) at 1uM” value amounted to 7.26%. With `S=c1[nH]c2cc(Cl)ccc2s1`, the “hERG current change (%, negative = inhibition) at 1uM” value was found to be 12.8%. With `Nc1nc(N)nc(-c2cccc(Cl)c2Cl)n1` the figure was 21.2%. With `COc1ccc(OC)c(NC(=O)C23CCC(C)(C(=O)O2)C3(C)C)c1` (stereo not drawn), the “hERG current change (%, negative = inhibition) at 1uM” value is listed as 4.98%. As to `COc1ccc(-c2ccc3c(c2)S(=O)(=O)c2cccc(C(=O)O)c2C3=O)cc1OC`, the “hERG current change (%, negative = inhibition) at 1uM” value is recorded as 13.3%. As for `Cc1ccc(Cl)cc1NC(=O)CCC(=O)NCc1ccco1`, the “hERG current change (%, negative = inhibition) at 1uM” value was determined as 12%. Next, `Cc1c(C(=O)NCC(c2ccco2)N2CCCC2)oc2ccc(Cl)cc12` (stereo not drawn): 7.9%. With `Nc1nonc1-c1nc2ccccc2n1CC(=O)O` the figure was 7.13%; with `CCOc1ccccc1OCCOCCN1CC(C)OC(C)C1` (stereo not drawn), 2.22%; with `CC(C)c1ccccc1N=C1SCCN1C1CCS(=O)(=O)C1` (stereo not drawn), 9.31%. Take `Cc1ccc(NC(=O)c2c(-c3ccccc3Cl)noc2C)nc1`: the “hERG current change (%, negative = inhibition) at 1uM” value amounted to 3.25%.

As to `Clc1ccc(-c2cn3cccnc3n2)cc1Cl`, the “hERG current change (%, negative = inhibition) at 1uM” value is recorded as 7.24%.

With `N#Cc1ccccc1NC(=O)CSc1n[nH]c(-c2ccco2)n1`, the “hERG current change (%, negative = inhibition) at 1uM” value turned out to be 13.6%. Next, `O=C(NC(=S)N1CCCCC1c1cccnc1)c1ccccc1` (stereo not drawn): 7.46%; `O=C(/C=C/C=C/c1ccccc1)CC1(O)C(=O)N(CCc2ccccc2)c2ccccc21` (stereo not drawn): 11%; `O=C(Nc1ccc(F)cc1F)c1ccc2c(c1)[nH]c(=O)n2Cc1ccc(F)cc1`: 8.9%.

Turning to `CC(C)=CCCC(C)N(C=O)C(C)CCC=C(C)C` (stereo not drawn), the “hERG current change (%, negative = inhibition) at 1uM” value is given as 2.21%.

For the compound `O=C(CSc1ccccn1)N/N=C/c1cc([N+](=O)[O-])ccc1O`, the “hERG current change (%, negative = inhibition) at 1uM” value is 21.6%. With `COc1cc(OC)nc(Oc2ccccc2C(=O)Oc2ccc(C)cc2)n1` the figure was -0.306%; with `COc1ccc(Cl)cc1NC(=O)Cn1c(=O)oc2ccccc21`, 10%; with `Cc1ccc(S(=O)(=O)NC(=O)c2ccccc2)cc1C(C)C`, 7.39%. Take `CN(C)C(=O)C[n+]1cccc(/C=N/O)c1`: the “hERG current change (%, negative = inhibition) at 1uM” value was found to be 11%. Next, `COc1cc(C(=O)NC(C)CCc2ccccc2)cc(OC)c1OC` (stereo not drawn): 12.9%; `COc1ccc(CN2CCNC(=O)C2CC(=O)NCCC2=CCCCC2)cc1OC` (stereo not drawn): 16.1%; `O=C(NCc1ccc2c(c1)CCO2)Nc1ccccc1`: 12.2%. With `CN1CCC(N(C)S(=O)(=O)c2ccc(NC(=O)c3cccc(C#N)c3)cc2)CC1` the figure was 6.72%; with `Cc1ccccc1CN1CCSc2sccc2C1=O`, 9.98%; with `COc1ccc(CC(=O)N2CCN=C2SCc2cccc([N+](=O)[O-])c2)cc1`, 2.08%. Next, `CCCN1CC=C2C(C#N)=C(N)C(C#N)(C#N)C(c3cc(OC)ccc3OC)C2C1` (stereo not drawn): -7.51%.

For `Cc1ccccc1C(OCC(O)CN1CCC(C(N)=O)CC1)c1ccccc1` (stereo not drawn), the “hERG current change (%, negative = inhibition) at 1uM” value is reported as -12.5%.

Take `O=C(CCc1nnc(-c2ccc3c(c2)OCO3)o1)NCCc1ccccc1F`: the “hERG current change (%, negative = inhibition) at 1uM” value is reported as 7.34%. Next, `COc1ccc(-c2cn3cc(C(=O)NN)ccc3n2)cc1`: 2.72%. Regarding `COc1ccc(NC(=O)/C(C#N)=C\C=C\c2ccco2)cc1`, the “hERG current change (%, negative = inhibition) at 1uM” value is reported as 12.5%. Next, `CCOC(=O)c1cc(-c2ccccc2)sc1NC(=O)C(C)Sc1nnc(N)s1` (stereo not drawn): 18.1%; `Cc1ccc(N)cc1O`: 11.9%. Consider `O=C(CNC(=O)c1ccc(S(=O)(=O)N2CCCCC2)cc1)N/N=C/c1ccco1`, for which the “hERG current change (%, negative = inhibition) at 1uM” value came out at 14%.

The values are drawn from publication PMC4336329 (PLoS ONE, 2015).
